# According to PubChem BioAssay AID1345082 (National Center for Advancing Translational Sciences (NCATS), 2018):
# Out of some 94,000 compounds screened, about 4,000 (4.3%) were called active. The shares of active, inactive and inconclusive entries below differ from those in the screen. Calls come from the whole dose curve; as a rule, active = well fitted inhibition curve with a large enough effect; inconclusive = small, poorly fitted or top-dose-only effect; inactive = no such curve, though single readings can be large or run the other way. A potency beside an inconclusive call is a rough fit, not a confirmed value.
# Experiment: Cytotoxic Profiling in NIH 3T3 Cell Line of Diverse Libraries Using Quantitative High-Throughput Screening; note: nearly all actives have a fitted effect of over 55% in size
# Settings: NIH 3T3 viability, CellTiter-Glo ATP luminescence, 48-72 h; series mostly up to 96.7 µM
# Outline: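 Luminescent ATP readout (CellTiter-Glo, 10 min RT) after 48 or 72 hr compound exposure of NIH 3T3 cells seeded at 400 cells/well in 1536-well format; quantitative HTS.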
# Potency is the fitted concentration of half-maximal effect; tags give direction and shape of the fitted curve.
row,Compound,Potency
1,CC(C)(C)C(=O)NC1CN(c2ccnc3ccnn23)C1,inactive
2,O=C(c1cccc(F)c1)N1CCC(n2cc(-c3nc(-c4ccccc4)no3)nn2)CC1,"inconclusive: 11.2 µM [inhibitor, full curve, poor fit]"
3,COc1cccc(CNC(=O)N2c3ccccc3CC2c2nc(C(C)C)no2)c1 (stereo unspecified),"inconclusive: 50.1 µM [inhibitor, partial curve, poor fit]"
4,O=C(Nc1ccccc1)[C@@H]1C[C@H](c2ccc(F)cc2)N([S+](=O)([O-])C2CC2)C1,"inconclusive: 100 µM [inhibitor, partial curve, poor fit]"
5,Cc1cccc(OCCc2noc(C3CCN(C(=O)c4cc(C)nn4C)C3)n2)c1 (stereo unspecified),"inconclusive: 44.7 µM [inhibitor, partial curve, poor fit]"
6,O=C(NCc1ccccc1)C1CN(c2ccnc3ccnn23)C1,"inconclusive: 31.6 µM [inhibitor, partial curve]"
7,N#Cc1cccc(NC(=O)CN2C(=O)NC(c3ccc(Cl)cc3)C3=C2COC3=O)c1 (stereo unspecified),"inconclusive: 50.1 µM [inhibitor, partial curve, poor fit]"
8,CN1c2cc(C(=O)NCc3cccc(Cl)c3)ccc2C(=O)N2CCCCC21 (stereo unspecified),"inconclusive: 50.1 µM [inhibitor, partial curve, poor fit]"
9,COc1cccc(CNC(=O)[C@@H]2C[C@@H](O)CN2C2CCN(C(=O)C3(c4ccccc4)CC3)CC2)c1,inactive
10,Cc1cncc(C(=O)N2CCOc3c(O)cc(-c4nc5ccccc5s4)cc3C2)c1,"inconclusive: 50.1 µM [inhibitor, partial curve, poor fit]"
11,CC1Oc2ccc(NC(=O)c3ccc(Cl)cc3)cc2CN(Cc2cc(F)cc(F)c2)C1=O (stereo unspecified),"inconclusive: 39.8 µM [inhibitor, partial curve]"
12,O=C(CCc1nc(-c2cccnc2)no1)NCc1cc2n(n1)CCCNC2,inactive
13,CCN1c2cc(C(=O)NCc3cc(F)ccc3F)ccc2C(=O)N2CCCCC21 (stereo unspecified),"inconclusive: 28.2 µM [inhibitor, partial curve, poor fit]"
14,c1cncc(-c2ccnc(NCCCn3nccc3C3CC3)n2)c1,"inconclusive: 28.2 µM [inhibitor, full curve, poor fit]"
15,O=C(Cn1cccc1-c1nc(-c2ccccc2)no1)Nc1cccc(F)c1,inactive
16,CC(=O)N1CCC2(CC1)CN(C(=O)Cc1cccc(Cl)c1)CCO2,inactive
17,O=C(O)C(Cc1ccco1)n1cc(-c2nccs2)nn1 (stereo unspecified),inactive
18,CC(=O)N1CCN(C(=O)c2cc(-c3cccc(F)c3)nc3c2cnn3C)CC1,inactive
19,Cc1ccccc1C(CNC(=O)c1cc(-c2ccc(F)cc2)n[nH]1)N(C)C (stereo unspecified),"inconclusive: 89.1 µM [inhibitor, single point]"
20,CC1=C[C@@H](CNC(=O)C2CC2)[C@H](C(C)C)C[C@H]1Cc1nnc(-c2ccccc2F)o1,active: 100 µM
21,COc1cccc(-c2ccc(C(=O)N3CCC(C(=O)NC4CCCC4)CC3)cc2)c1,"inconclusive: 50.1 µM [inhibitor, partial curve, poor fit]"

row,Compound,Potency
1,Cc1nc2c(c(-c3ccc(Cl)cc3)n1)CN([S+](=O)([O-])c1ccccc1)CC2,"inconclusive: 39.8 µM [inhibitor, partial curve]"
2,O=C1N(c2ccccc2)c2ccccc2C12CCN([S+](=O)([O-])c1ccccc1)C2 (stereo unspecified),"inconclusive: 22.4 µM [inhibitor, full curve]"
3,COCCC1(NC(=O)c2ccccc2)CCN(S(=O)(=O)c2ccc(C#N)cc2)CC1,"inconclusive: 50.1 µM [inhibitor, single point]"
4,O=C(Nc1ccc2n(c1=O)C[C@H]1C[C@@H]2CN(C(=O)c2ccc(-c3ccccc3)cc2)C1)c1ccco1,"inconclusive: 89.1 µM [inhibitor, single point]"
5,CC1(c2ccccc2)CCCN(C(=O)c2cc(-c3ccncc3)n[nH]2)C1 (stereo unspecified),"inconclusive: 50.1 µM [inhibitor, partial curve, poor fit]"
6,COCCN1CCCN(C(=O)NCCc2ccccc2)c2ccccc21,"inconclusive: 39.8 µM [inhibitor, partial curve, poor fit]"
7,CC(=O)NCCCC(=O)N1C2CCC1CN(c1ccc(C(F)(F)F)cc1)C2,"inconclusive: 35.5 µM [inhibitor, partial curve]"
8,O=C(NCc1cccc(C(F)(F)F)c1)C1(CCO)CCN(c2ncccn2)C1 (stereo unspecified),inactive
9,Cc1c[nH]c(CN2CCCC(CCc3ccc(F)cc3F)C2)c(C)c1=O (stereo unspecified),active: 50.1 µM
10,CCn1cc(CN(C)C(=O)c2ccc3c(c2)C(O)CCCCCN3CCOC)c(C)n1 (stereo unspecified),"inconclusive: 39.8 µM [inhibitor, partial curve]"
11,Cc1cccc(C(=O)NCc2nnc3c(-c4nc(C(C)C)no4)cccn23)c1,inactive
12,CC(C)CC(=O)N1CCC2(CC1)CC(N(Cc1ccc(F)cc1)C1CC1)CCO2 (stereo unspecified),"inconclusive: 50.1 µM [inhibitor, partial curve, poor fit]"
13,COc1cc(C)c2c(c1C)C[C@H](C(C)C(=O)N1CCSCC1)CC2 (stereo partly specified),"inconclusive: 39.8 µM [inhibitor, full curve]"
14,Cc1cc(CNC(=O)c2cc(-c3ccccc3C)cc3c2OCCN3C)no1,"inconclusive: 89.1 µM [inhibitor, partial curve, poor fit]"
15,Cc1ccccc1C(=O)N1CCN(c2nc3ncccc3o2)CC1,inactive
16,Cc1ccc([S+](=O)([O-])NCCNC(=O)c2cccc(-c3ncccc3C#N)c2)cc1,inactive
17,COc1cccc(C(=O)N2CCCC(C(=O)N3CCCC(c4nc5ccncc5[nH]4)C3)C2)c1 (stereo unspecified),inactive
18,COCC1CN(S(=O)(=O)Cc2ccc(C)c(C)c2)CC12CCNCC2 (stereo unspecified),inactive
19,CCCCN1C(=O)C2(CCN(C(=O)CC(C)(C)C)CC2)Nc2ccccc21,"inconclusive: 50.1 µM [inhibitor, partial curve, poor fit]"
20,COCCCNc1nc2c([S+](=O)([O-])c3cccnc3)nnn2c2ccccc12,"inconclusive: 79.4 µM [inhibitor, single point]"
